Assay results published in PubChem BioAssay AID1963576 (National Center for Advancing Translational Sciences (NCATS), 2024).
About 60 (0.1%) of roughly 46,000 compounds were called active. About 3% were inconclusive and are not listed. The call rests on the fitted dose curve; in most records, active means well fitted inhibition curve with a large enough effect; inconclusive means small, poorly fitted or top-dose-only effect; inactive means no such curve, though single readings can be large or run the other way. The list shows a part of the results.

Assay: Primary qHTS assay for Inhibitors of ovarian cancer metastasis using an organotypic tumor microenvironment (TME) model. Further: nearly all actives have a fitted effect of over 65% in size.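 On activity change, negative = inhibition: plate controls were DMSO wells for no effect and tomatine positive control wells for full effect.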
Settings: SKOV3ip1-GFP adhesion/invasion on 3D omental model, fluorescence; series mostly up to 45.8 µM; activity change, negative = inhibition: at the top concentration
How it was run: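 A 3D layer of primary human omental fibroblasts, mesothelial cells, fibronectin and collagen I, grown 48 hr, received SKOV3ip1-GFP cells in serum-free medium plus compounds at 0.36-46 umol/L. After 2 hr RT and 16 hr 37 C, fixed adherent GFP cells were counted; normalized to DMSO and tomatine.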

outcome, inactive:
COc1cn(CC(=O)Nc2cccc(C)c2C)c(CN2CCCCC2)cc1=O
O=C(Nc1ccc(Br)cc1F)N1CCC(CN2CCCC2)CC1
CCN1C(=O)c2ccccc2S(=O)c2ccc(C(=O)N3CCN(c4cccc(C)c4)C(C)C3)cc21 (stereo unspecified)
COc1cc(OC)c(C2Nc3c(C)cccc3-c3cc(C)nn32)cc1OC (stereo unspecified)
CCOC(=O)c1ccc(NC(=O)Cn2cc(C(=O)c3ccc(CC)cc3)c(=O)c3ccc(C)nc32)cc1
CCCn1c(SCc2nc(-c3ccc(OC)c(OC)c3)no2)nnc1-c1ccccc1
COc1ccc(OC)c(CNC(=O)c2ccc(-c3nc(CSc4ccccc4)c(C)o3)cc2)c1
Cc1c(C2=CCN(S(=O)(=O)c3cccc(Cl)c3)CC2)c2ccccc2n1CC(=O)N1CCCC1
CN(Cc1ccccc1)S(=O)(=O)c1ccc(-c2cnc(C3CC3)o2)cc1
Cc1cccc(N2CCN(S(=O)(=O)c3ccc(-c4cc(C(F)(F)F)on4)s3)CC2)c1C
COc1cccc(CC(=O)Nc2ccc(-c3nc4ccccc4s3)cc2)c1
Cc1cc2c(cc1C)NC(CC(=O)Nc1cccc(Cl)c1)C(=O)N2 (stereo unspecified)
O=C(Cn1c(=O)c(C(F)(F)F)nc2ccccc21)Nc1cccc(Br)c1
CCCN1C(C(=O)c2ccccc2)=C(OC(=O)c2ccc(OC)cc2)c2ccccc2S1(=O)=O
COc1ccc(/C=C/C(=O)Nc2sc(C)c(C)c2C(=O)O)cc1
CC(C)c1cnc2c(c1SCC(=O)N1CCCCC1)c(=O)n(C)c(=O)n2C

Activity change, negative = inhibition, inactive:
Cc1ccc(C)c(NC(=O)CSc2c3c(nc4ccc(Cl)cc24)CCCC3)c1 3.01%
CCOC(=O)c1ccccc1NC(=O)c1sc2ncn(Cc3cccc(F)c3)c(=O)c2c1C 13.7%
COc1ccc(/C=C(\C#N)c2nc(-c3cc4c(ccc5ccccc54)oc3=O)cs2)cc1O -2.64%
Cc1ccc(C2=Nc3ccccc3N(CC(=O)NCc3ccc(F)cc3)C(=O)C2)cc1C -7.55%
O=C(O)c1ccc(-n2c(/C=C\c3ccc(O)cc3)nc3ccccc3c2=O)cc1 6.94%
COc1ccccc1NC(=O)CSc1nc2ccccc2c2nc(-c3ccccc3)nn12 5.73%
COc1ccccc1-c1cc(C(=O)Nc2ccccc2C(F)(F)F)no1 3.67%
CCN1CCN(c2cc3c(cc2F)c(=O)c(S(=O)(=O)c2ccccc2)cn3C)CC1 8.89%
CC(C)NC(=O)CCCN1C(=O)CCn2nc(-c3cccn3C)cc21 -2.63%
COC(=O)c1cc2c(cc1NC(=O)c1cnn(-c3ccc(C)cc3)c1-n1cccc1)OCO2 11%
COC(=O)c1sc(NC(=O)/C=C/c2ccc(OC)c(OC)c2)c(C(=O)OC)c1C 0.264%
COc1ccc(CNC(=O)CSc2nc3ccccc3nc2Cc2ccccc2OC)cc1 -6.18%
COc1ccc(OCc2nc3c4c(-c5ccccc5)c(-c5ccccc5)oc4ncn3n2)cc1 -7.1%
COc1cccc(C(=O)c2cn(CC(=O)NCc3ccccc3)c3nc(C)ccc3c2=O)c1 -3.39%
CCOC(=O)c1ccc(NS(=O)(=O)c2cc(-c3onc(C)c3C)ccc2C)cc1 -3.09%
Cc1cccc(CNC(=O)CSCc2cnn(-c3ccccc3)c2-n2cccc2)c1 -5.4%
CC1=C(C(=O)OCc2ccccc2)C(c2cccc(Cl)c2Cl)CC(=O)N1 (stereo unspecified) -12.1%
O=S(=O)(O)CCS 15.7%
Cc1nn(C)c2c1c(C(F)(F)F)cc(=O)n2C(C)C(=O)NCc1ccc(Cl)cc1 (stereo unspecified) 10.7%
Cc1[nH]c2ccccc2c1C1N2CC3(C)CN1CC(C)(C2)C3=O (stereo unspecified) -1.98%
COC(=O)c1ccc(NC(=O)CC2C(=O)N(c3ccc(Cl)cc3)C(=O)N2Cc2ccco2)cc1 (stereo unspecified) -12.3%
CC1=C(c2ccc(C)cc2)S(=O)(=O)NC1=NCc1cccc(F)c1 -7.22%
CC1(C)SCCN(S(=O)(=O)c2ccc(OCC#CCO)cc2)[C@@H]1C(=O)NO -5.91%
COc1ccc(NC(=O)CN2CCCN(Cc3ccc(Cl)cc3)S2(=O)=O)cc1Cl -8.99%
CCOC(=O)c1cnc2ccccc2c1NCCc1ccc(OC)c(OC)c1 2.67%
COc1ccc(CNC(=O)c2cnc3sc(N4CCCCCC4)nn3c2=O)cc1 6.33%
CCN1c2ccccc2-c2nc(SCC(=O)NCc3ccc(C)cc3)ncc2S1(=O)=O 4.93%
CCOc1ccc(-c2nc(Cn3c(=O)cc(-c4ccccc4)c4c(C)nn(C)c43)c(C)o2)cc1 -8.44%
CC1CCC(C(=O)N(c2cc(C#CC(C)(C)C)sc2C(=O)O)C2CCC(O)CC2)CC1 (stereo unspecified) -3%
CCOc1ccc(NC(=O)CN(c2ccc(CC)cc2)S(=O)(=O)c2c(C)noc2C)cc1 -4.17%
Cc1ccc(CNC(=O)Cn2c(=O)cc(C(F)(F)F)c3c(C)nn(C)c32)cc1 3.29%
COC(=O)C1=C(c2ccccc2)c2ccccc2S(=O)(=O)N1CC(=O)Nc1ccc(F)c(F)c1 8%
Cc1sc2ncn(CC(=O)N3CCN(c4ccc(F)cc4)CC3)c(=O)c2c1S(=O)(=O)N1CCC(C)CC1 -7.63%
CSc1ncc(C(=O)NCc2cccc(F)c2)c(-c2ccccc2)n1 -0.286%
CC(C)Oc1ccc(CNC(=O)c2ccc(CN3CC(=O)N4CCCCC4C3=O)cc2)cc1 (stereo unspecified) 10.3%
O=C(NCc1cccc(Cl)c1)c1ccc(NC(=O)N2CC3CCCN3c3ccccc32)cc1 (stereo unspecified) -5.82%
Oc1c(C(c2ccc(Cl)cc2Cl)N2CCN(c3ccccc3)CC2)sc2nc(-c3ccco3)nn12 (stereo unspecified) -6.14%
O=C(CCS(=O)(=O)c1cc2c(cc1Cl)NC(=O)CO2)NCc1ccccc1Cl 2.18%
COc1ccc(CN(Cc2ccco2)c2cnc(S(C)(=O)=O)nc2C(=O)Nc2ccc(C)c(Cl)c2)cc1 -1.01%
O=c1c2oc3ccccc3c2n(Cc2ccccc2Cl)c(=O)n1Cc1ccco1 -5.41%
CCCc1nc(SC)ncc1C(=O)N1CCN(c2ccc(Cl)cc2)CC1 6.17%
CC(C)Oc1ccc(C(=O)N2CCN(CCc3ccccn3)CC2)cc1 5.72%
O=C(NCCc1ccccc1)C1CCC(CNS(=O)(=O)c2ccccc2)CC1 (stereo unspecified) -6.22%
Cc1ccc(NC(=O)c2cnn3c(C(F)F)cc(-c4ccccc4)nc23)cc1F 10.2%
CCOc1ccc(NC(=O)NCCc2c(C)nn(C)c2C)cc1 9.87%
CC1CCc2nn(CC(=O)Nc3ccccc3Cl)cc2C1 (stereo unspecified) -2.96%
CCc1ccc(-c2nc3c(c(SCc4ccccc4F)n2)Cc2c(CO)cnc(C)c2O3)cc1 4.79%
Cc1cccc(N2CCN(C(=O)CN3CCSc4ccccc43)CC2C)c1 (stereo unspecified) 9.17%
Cc1ccc(NC(=O)C(C)Sc2nc(=O)cc(N)n2-c2cccc(C)c2)cc1 (stereo unspecified) 16.3%
COc1cccc(S(=O)(=O)N2CCN(Cc3ccc4c(c3)OCO4)CC2)c1 3.82%
COc1ccc(NC(=O)C(=O)NCC(c2cccnc2)N2CCc3ccccc32)cc1OC (stereo unspecified) -12.7%
O=C(C1CCCN(S(=O)(=O)c2ccc(Br)s2)C1)N1CCN(c2cccc(Cl)c2)CC1 (stereo unspecified) 1.24%
Cc1ccccc1OCC(=O)Nc1ccc2nc(SCC(=O)N3CCc4ccccc43)sc2c1 2.55%
COc1ccc(OCC(=O)Nc2cc(-c3nc4ccccc4s3)ccc2C)cc1 -2.4%
COc1ccc2c(c1)c1c(c(=O)n(-c3ccc(C)cc3)c(=O)n1CC(=O)NCc1ccc(C)cc1)n2C -2.6%
COc1ccc(Cl)cc1NC(=O)c1nnn(Cc2cccc(C(F)(F)F)c2)c1N 5.69%
Cc1ccc(CNc2ncnc3c2cnn3-c2ccc(Cl)cc2)cc1 -14.2%
COc1ccccc1C1Nc2c(sc3nc(C)cc(C)c23)C(=O)N1c1ccccc1 (stereo unspecified) 18.8%
COc1cccc(C2C(C(=O)Nc3ccc(Cl)cc3)=C(C)Nc3nc4ccccc4n32)c1 (stereo unspecified) 8.31%
CCC(C)Sc1oc(-c2ccco2)nc1S(=O)(=O)c1ccc(C)cc1 (stereo unspecified) -9.91%
CCN(CC)c1ccc(NC(=O)CCc2nc3cccnc3n2Cc2cccs2)c(C)c1 -10.3%
O=C(NCC(c1ccc2c(c1)OCO2)N1CCOCC1)C(=O)Nc1ccccc1 (stereo unspecified) 5.99%
C=CCc1cccc2cc(C(=O)NCCc3c(C)[nH]c4c(C)cccc34)c(=O)oc12 17.2%
NS(=O)(=O)c1ccc(CCNC(=O)Cn2c(-c3cccs3)cc3ccccc32)cc1 -10.5%
Cc1ccccc1NC(=O)c1ccc2c(O)c(S(=O)(=O)c3ccccc3)c(=O)[nH]c2c1 0.184%
CN(Cc1ccc(F)cc1)S(=O)(=O)c1nnc(NC(=O)c2ccccc2Cl)s1 11.3%
CCc1nc(-c2cc(S(=O)(=O)N3CCN(c4ccccc4F)CC3)ccc2OC)no1 -1.48%
Cn1nnnc1SCCCNCc1ccc(-c2ccc(F)c(Cl)c2)o1 -4.18%
Cc1ccc(S(=O)(=O)Nc2cc3c(cc2C)n(C)c(=O)c(=O)n3C)c(C)c1 1.61%
Cc1cc(C)cc(Nc2cc(C(=O)NC3CCC(C)CC3)c3ccccc3n2)c1 (stereo unspecified) 24%
COc1ccc(CCNC(=O)c2c(C)oc3ncnc(N4CCOCC4)c23)c(OC)c1 -18.9%
Cc1cc(C)cc(NS(=O)(=O)c2ccc(N3CCCCS3(=O)=O)cc2)c1 3.41%
Cc1cc(=O)n(CC(=O)NCc2ccc(OC(C)C)cc2)c2c1c(C)nn2-c1cccc(F)c1 -6.03%
CCc1ccc(NC(=O)CN2C(=O)CCSc3ccccc32)cc1 9.32%
O=C(NCCc1ccccc1)c1ccc(CS(=O)(=O)Cc2ccccc2Cl)o1 9.69%
Cc1ccc(CNC(=O)C2CCCN(S(=O)(=O)c3cn(C)cn3)C2)cc1 (stereo unspecified) 3.78%
CCOc1cc(CN2CCN(S(=O)(=O)c3ccc(C)cc3)CC2)ccc1OC -8.76%
COc1ccc(Nc2c(-c3ccc(N4CCOCC4)cc3)nc3ncccn23)cc1OC -5.5%
O=c1c(N2CCc3ccccc3C2)csc2ccc(Cl)cc12 16.8%
CC(C)Cc1nn2c(=O)cc(COC(=O)c3ccc(NC(=O)CCc4ccccc4)cc3)nc2s1 3.62%
